{
  "source": "PubChem BioAssay AID2147",
  "about": "(National Center for Advancing Translational Sciences (NCATS), 2009)",
  "note": "Out of some 230,000 compounds screened, about 3,600 (1.6%) were called active. The inconclusive results got no clear call from the source; some entries with a clear call stand among them for comparison. Calls come from the whole dose curve; as a rule, active = well fitted inhibition curve with a large enough effect (not every such curve was filed as active); inconclusive = small, poorly fitted or top-dose-only effect, or another doubt; inactive = no such curve, though single readings can be large or run the other way. Potencies beside an inconclusive call are fits to weak or partial responses and may not hold up. Note: nearly all actives have a fitted effect of over 50% in size. Potency is the fitted concentration of half-maximal effect; tags give direction and shape of the fitted curve.",
  "data": [
    {"target": "Lysine-specific demethylase 4E (Homo sapiens) (UniProt B2RXH2)", "sequence (B2RXH2 whole entry, looked up, the tested form may be a part)": "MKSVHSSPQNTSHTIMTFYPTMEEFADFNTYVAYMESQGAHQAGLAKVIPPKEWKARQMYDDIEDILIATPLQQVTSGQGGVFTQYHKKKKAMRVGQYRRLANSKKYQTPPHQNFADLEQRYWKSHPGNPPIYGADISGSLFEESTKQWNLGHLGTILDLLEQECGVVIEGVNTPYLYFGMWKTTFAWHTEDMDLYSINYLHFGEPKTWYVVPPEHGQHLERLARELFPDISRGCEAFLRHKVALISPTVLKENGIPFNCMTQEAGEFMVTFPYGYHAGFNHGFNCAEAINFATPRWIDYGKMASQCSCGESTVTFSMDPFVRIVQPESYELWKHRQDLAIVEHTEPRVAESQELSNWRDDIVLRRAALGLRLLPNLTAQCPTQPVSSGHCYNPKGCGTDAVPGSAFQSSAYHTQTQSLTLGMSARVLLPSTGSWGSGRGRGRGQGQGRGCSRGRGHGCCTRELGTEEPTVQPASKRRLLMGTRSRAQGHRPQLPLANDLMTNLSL", "assay": "qHTS Assay for Inhibitors of Human Jumonji Domain Containing 2E (JMJD2E)", "conditions": "JMJD2E catalytic domain, FDH-coupled NADH fluorescence (FDH is formaldehyde dehydrogenase); series mostly up to 57.1 µM", "values": [
      {"smiles": "CCOC(=O)c1cccc(NC(=O)c2cnccn2)c1", "Potency": "inactive"},
      {"smiles": "Cc1c(NC(=O)c2ccc(Cl)nc2)cccc1-c1nc2cccnc2s1", "Potency": "inconclusive: 35.5 µM [inhibitor, single point]"},
      {"smiles": "COc1cc(SC)ccc1C(=O)Nc1ccc(S(=O)(=O)N2CCCC2)cc1", "Potency": "inconclusive: 39.8 µM [inhibitor, single point]"},
      {"smiles": "COc1ccc(/C=N/NC(=O)c2ccc(Cl)c(S(N)(=O)=O)c2)cc1OCC(N)=O", "Potency": "inconclusive: 25.1 µM [inhibitor, partial curve]"},
      {"smiles": "COc1ccc(C(=O)NCC(=O)N/N=C/c2ccc([N+](=O)[O-])o2)cc1OC", "Potency": "inconclusive: 31.6 µM [inhibitor, single point]"},
      {"smiles": "CC(C)Nc1oc(-c2cccc3ccccc23)nc1C#N", "Potency": "inconclusive: 28.2 µM [inhibitor, partial curve]"},
      {"smiles": "Cn1c(=O)oc2cc(S(=O)(=O)Nc3ccc4c(c3)OCCO4)ccc21", "Potency": "inactive"},
      {"smiles": "Cc1c(C#N)c(NC(=O)CCl)n(Cc2ccccc2)c1C", "Potency": "inactive"},
      {"smiles": "Cc1oc(-c2cc(Cl)cc(Cl)c2)cc1C(=O)NCCc1ccccc1", "Potency": "inconclusive: 39.8 µM [inhibitor, single point]"},
      {"smiles": "CCCCn1nc2cc(C(=O)NCC3CC3)ccc2c1OCC", "Potency": "inconclusive: 31.6 µM [inhibitor, partial curve]"},
      {"smiles": "COc1c2occc2cc2ccc(=O)oc12", "Potency": "inactive"},
      {"smiles": "O=C(NC(=S)NCc1ccc(F)cc1)c1ccccc1", "Potency": "inactive"},
      {"smiles": "O=C(Nc1ccc(C(=O)N2CCOCC2)cc1)c1cccc([N+](=O)[O-])c1", "Potency": "inactive"},
      {"smiles": "CCc1cc2cc(C)ccc2nc1SCC(=O)N1CCN(C(=O)c2ccco2)CC1", "Potency": "inactive"},
      {"smiles": "O=C(Cc1ccccc1)NC1(O)C(=O)c2ccccc2C1=O", "Potency": "inconclusive: 22.4 µM [inhibitor, single point]"},
      {"smiles": "O=C(Cn1c(-c2ccccn2)nc2ccccc21)N/N=C/c1cccnc1", "Potency": "inconclusive: 39.8 µM [inhibitor, single point]"},
      {"smiles": "O=C(COC(=O)Cc1ccc(Cl)cc1Cl)Nc1ccc(OC(F)F)cc1", "Potency": "inconclusive: 28.2 µM [inhibitor, single point]"},
      {"smiles": "CCOC(=O)C1CCN(C(=O)CCc2c(C)nc3cc(-c4ccc(OC)cc4OC)nn3c2C)CC1", "Potency": "inconclusive: 3.55 µM [inhibitor, full curve]"},
      {"smiles": "N#Cc1c(NC(=O)COC(=O)C2CC3C=CC2C3)oc(-c2ccccc2)c1-c1ccccc1", "note": "(stereo not given)", "Potency": "inconclusive: 22.4 µM [inhibitor, single point]"},
      {"smiles": "CC(C)c1ccc(N2C(=O)CC(Sc3nc4ccccc4o3)C2=O)cc1", "note": "(stereo not given)", "Potency": "inactive"},
      {"smiles": "O=C(CSc1nnc(-c2cccnc2)n1-c1ccccc1)Nc1ccc2c(c1)OCO2", "Potency": "inconclusive: 35.5 µM [inhibitor, single point]"},
      {"smiles": "COc1ccc(CNC(=O)CCc2c(C)nc3cc(-c4ccccc4OC)nn3c2C)cc1", "Potency": "inconclusive: 31.6 µM [inhibitor, partial curve]"},
      {"smiles": "Nc1nnc(Cc2ccc(Cl)c(Cl)c2)s1", "Potency": "inactive"},
      {"smiles": "Cn1c(C2=C(O)CN(Cc3ccccc3)C2=N)nc2ccccc21", "Potency": "inactive"},
      {"smiles": "CNc1nc2c(C)cccn2c(=O)c1C=Nc1ccc(OC)cc1", "Potency": "inconclusive: 14.1 µM [inhibitor, partial curve]"},
      {"smiles": "COC(=O)COc1cccc2c(=O)n(CC(=O)NCc3ccccc3)ccc12", "Potency": "inconclusive: 39.8 µM [inhibitor, single point]"},
      {"smiles": "Cc1ccc(-c2ccc(CCC(=O)O)n2-c2cccc(O)c2)cc1", "Potency": "inconclusive: 35.5 µM [inhibitor, partial curve]"},
      {"smiles": "COc1cnc(-c2ccccn2)nc1N(C)C", "Potency": "inconclusive: 39.8 µM [inhibitor, single point]"},
      {"smiles": "Cc1cc(C)c2cc(C(O)c3nnnn3Cc3ccccc3)c(=O)[nH]c2c1", "note": "(stereo not given)", "Potency": "inconclusive: 28.2 µM [inhibitor, single point]"},
      {"smiles": "CCNC(=O)c1cc2c(=O)n3cccc(C)c3nc2n(CCc2ccccc2)c1=N", "Potency": "inconclusive: 3.16 µM [inhibitor, full curve]"},
      {"smiles": "CCOC(=O)C1=NO[C@@]2(C=C(Br)C(=O)[C@H]3O[C@H]32)C1", "Potency": "inconclusive: 31.6 µM [inhibitor, single point]"},
      {"smiles": "CC1OC(Nc2cccc3ccccc23)C(O)C(O)C1O", "note": "(stereo not given)", "Potency": "inconclusive: 25.1 µM [inhibitor, partial curve]"},
      {"smiles": "Nc1c(C(=O)OCC2CCCO2)c2nc3ccccc3nc2n1-c1ccc2c(c1)OCCO2", "note": "(stereo not given)", "Potency": "inconclusive: 25.1 µM [inhibitor, partial curve]"},
      {"smiles": "O=C1C2C3C=CC([C@@H]2C(=O)N1C1CC1)[C@H]1C(=O)N(C2CC2)C(=O)C31", "note": "(stereo not given in full)", "Potency": "inactive"},
      {"smiles": "Fc1ccc(-c2cc3nc4c(c(N5CCOCC5)n3n2)CCCC4)cc1", "Potency": "inconclusive: 39.8 µM [inhibitor, single point]"},
      {"smiles": "Cc1oc(-c2ccccc2)nc1CS(=O)CC(=O)N1CCc2ccccc2C1", "note": "(stereo not given)", "Potency": "inconclusive: 39.8 µM [inhibitor, single point]"},
      {"smiles": "S=c1cnc2ccccc2[nH]1", "Potency": "active: 11.2 µM"},
      {"smiles": "CCCCNC(=S)N(Cc1ccco1)Cc1cc2cc3c(cc2[nH]c1=O)OCCO3", "Potency": "inconclusive: 31.6 µM [inhibitor, partial curve]"},
      {"smiles": "CSc1nc(NCCCO)c2c3c(sc2n1)CN(C)CC3", "Potency": "inconclusive: 25.1 µM [inhibitor, partial curve]"},
      {"smiles": "Cc1nc2ccccc2n1CC(=O)NCc1ccccc1", "Potency": "inactive"},
      {"smiles": "Cc1cc(C)n2c(nc3ccccc32)c1C(=O)NCc1ccccc1", "Potency": "inconclusive: 3.16 µM [inhibitor, partial curve]"},
      {"smiles": "CCC(C)c1ccc(-c2cc(C(=O)OCC(=O)Nc3cc(C)on3)c3ccccc3n2)cc1", "note": "(stereo not given)", "Potency": "inconclusive: 10 µM [inhibitor, partial curve]"},
      {"smiles": "O=C(CCN1C(=O)C2C3C=CC(C3)C2C1=O)N1CC(=O)N(CCc2ccccc2)C(=O)C1", "note": "(stereo not given)", "Potency": "inactive"},
      {"smiles": "CN1C(=O)c2oc3ccccc3c(=O)c2C1c1ccncc1", "note": "(stereo not given)", "Potency": "inconclusive: 39.8 µM [inhibitor, single point]"},
      {"smiles": "CCOC(=O)c1cc2c(C)n(-c3ccc(OCC)cc3)c(C)c2ccc1=O", "Potency": "inconclusive: 20 µM [inhibitor, partial curve]"}
    ]}
  ]
}
